Test results: article PMC12136788
Some of the results follow.

B1: chr19:42935403:42935769:-|CDS|ENSG00000221878|control|control|control (ssRNA)
RNA: GGGAGUUCUACAGUCCGACGAUCCUACAUCUGGUACAAAGGACAAAUCAGGGACCUCUACCAUUAUGUUACAUCAUAUAUAGUAGACGGUCAAAUAAUUAAAUAUGGGCCUGCAUACAGUGGACGAGAAACAGUAUAUUCCAACAACAGAGGAUUGAGCAUCA
B2: chr21:34788506:34788607:-|3pUTR|ENSG00000159216|msi1|FALSE|unique (ssRNA)
RNA: GGGAGUUCUACAGUCCGACGAUCUUGUUAAUGCCUAUAACUUUUUUUCAAUUUUUUUGUGUGUGUUUCUAAGGACUUUUUCUUAGGUUUGCUAAAUACUGUAGGGAAAAAAAUGCUUCUUUCUACUUUGUUUAUUUUAGACUUCAACAGAGGAUUGAGCAUCA
B3: chr17:77216858:77216994:+|3pUTR|ENSG00000129657|unk|total|mutant (ssRNA)
RNA: GGGAGUUCUACAGUCCGACGAUCUGUUUCUACCUUCCGUACCUUGCCACUCUUUUAAAACGCUGCUGUCAUUUCCCAUUUCUCCGUACUAAUGAUUCUUUGAUUCUCCCUCUAUUAUGUCUUAAUUCACUUUCCUUCCUAAAUCAACAGAGGAUUGAGCAUCA
B4: ENSG00000149294:stop:overlap|stop_codon|ENSG00000149294|stop_codon|NA|stop_codon (ssRNA)
RNA: GGGAGUUCUACAGUCCGACGAUCCUGCAUCCUACACCUUUGUCUCAUUGCUUUUCUCUGCAGUGACUCUUCUUUUGCUCUGUUAGGAACUUGAACACAAAAAUUAAAUUUGCUUAAAAGCCCAGUUCCUAUGAAAAAGAUCAGCAACAGAGGAUUGAGCAUCA
B5: chr10:51697484:51697585:-|3pUTR|ENSG00000177613|unk|total|mutant (ssRNA)
RNA: GGGAGUUCUACAGUCCGACGAUCAAUGGGUGCAAAAAGCUGACUUCUGUAUCCCCACACUUGGAUCCGGGUUUCCCUCCUCCCCGAACCUAAUCUUAUUUUUUGUUCUUUUUCUUUCUUUCUGUUUUCCUUUUUUUUUUAAUUCAACAGAGGAUUGAGCAUCA
B6: chrX:55006554:55006655:+|CDS|ENSG00000169188|unk|FALSE|unique (ssRNA)
RNA: GGGAGUUCUACAGUCCGACGAUCAGGGCGCAAGUGGAUGGACAGCUUGCUCAGUAACUUGGGGUGCCAGUCUGCCUCUCAUGUAGGGCCCUUCAUCGAUAGCUACCGCUGCUUCCAACCAAAGCAGGAGGGGGCCUUCACCUGCAACAGAGGAUUGAGCAUCA
B7: ENSG00000198589:be:win_4651|CDS|ENSG00000198589|bound_else_gene|NA|bound_elsewhere_windowed (ssRNA)
RNA: GGGAGUUCUACAGUCCGACGAUCAUUUUGGAACCCCAAAAUGAAAGGCAUAGCCAGUCAUGUACAGAAACUGGCAGUGAAAAUGAGAAUGUAUCACUCUCUGAAAUCACACCAGCAGCAUUCAGCACUUUAACUACGGCAUCACAACAGAGGAUUGAGCAUCA
B8: chr13:106491723:106491923:-|3pUTR|ENSG00000125266|msi1|total|mutant (ssRNA)
RNA: GGGAGUUCUACAGUCCGACGAUCCAGACUCAGCUGCUAUACUUAUCACAUUUUAUUAAACACAGGGAAAGCAUUCCGGAGAACCGCAGAGAGCCAAAUCUGACCUAAAAGUUGAAAAGCCAAAGGUCAAACAGGCUGUAAUUCCAACAGAGGAUUGAGCAUCA
B9: chr16:50751694:50751795:+|CDS|ENSG00000083799|unk|FALSE|unique (ssRNA)
RNA: GGGAGUUCUACAGUCCGACGAUCGCUUUUUCAGUGUGAUGAAGAUUGUGGCGUGUUUGUUGCAUUGGACAAGCUAGAACUCAUAGAAGAUGAUGACACUGCAUUGGAAAGUGAUUACGCAGGUCCUGGGGACACAAUGCAGGUCAACAGAGGAUUGAGCAUCA
B10: chr1:45660322:45660423:-|5pUTR|ENSG00000159592|unk|FALSE|unique (ssRNA)
RNA: GGGAGUUCUACAGUCCGACGAUCUCCCCUUCCCCCCUUCCCCUUUUCCCCUUUCCCCUUUUGGAAACGUGUCAGGAACCAAAUAGUUUAAGAUGAGCAGUUGAGGGGACUGAGAGAGUGAUCGACACAGAACCUGGCUUCUUCCAACAGAGGAUUGAGCAUCA
B11: chr13:19825080:19825183:-|CDS|ENSG00000132950|unk|total|mutant (ssRNA)
RNA: GGGAGUUCUACAGUCCGACGAUCUUUCCGAGAAGAAAAUGAGAAACAAUUAUAUGGAUCGUCAAAUACACUUUUGAAAAAAACCGAGGGAAUCCCAGAAAAAAAGGAAAAGACUUCACAGCUACAGCUUUCAGCCGAAUGUGGCAACAGAGGAUUGAGCAUCA
B12: ENSG00000198589:be:win_2651|CDS|ENSG00000198589|bound_else_gene|NA|bound_elsewhere_windowed (ssRNA)
RNA: GGGAGUUCUACAGUCCGACGAUCAAAAGAUAACAGAAAUGGUAUACGCCAUAUUCAGAAUCCUGCUUUACCAUGCAGUCAAAUAUGAGUGGGGUGGCUGGCGUGUAUGGGUAGACACUUUAUCAAUCACUCAUUCAAAGGUCACAACAGAGGAUUGAGCAUCA
B13: chr1:119913532:119913650:-|3pUTR|ENSG00000134250|msi1|total|mutant (ssRNA)
RNA: GGGAGUUCUACAGUCCGACGAUCUCAUGCUCUUGGCAAUUUCUUUGACUUUCUUUUAAGGGCAGAAGCAUUUCCGUUAAUUGCCGAUAAAGAACCGUUUUCUUCCUCUUCUCCUUGGGCCAGUUAAUAAUUGGUCCAUGGCUACAACAGAGGAUUGAGCAUCA
B14: chr3:124966548:124966651:-|3pUTR|ENSG00000173706|unk|total|mutant (ssRNA)
RNA: GGGAGUUCUACAGUCCGACGAUCAGGAAGAAUGCAAAGUUCAGUAUUUCAAUACUUUGUAUUUUACUUGAAAUUACCCUCCGCCGCAUCUUUUUUUUCCUGUCUGAAAGCUUUUGUGUGGAUGAGAAGGGACAUUUCAUUUCCCAACAGAGGAUUGAGCAUCA

target: MSI1 full-length (mouse, UniProt Q61474 1-362); assay: nsRBNS (natural sequence RNA bind-n-seq); RBNS binding buffer (assumed for nsRBNS): 25 mM Tris pH 7.5, 150 mM KCl, 3 mM MgCl2, 0.01% Triton X-100, 500 ug/ml BSA, 20 U/ml SUPERase-In, 4 C; UNK is unkempt and MSI1 is Musashi-1; names of the RNAs are library labels; protein concentration not given here; high values mean tight binding
UniProt Q61474, sequence (Q61474 whole entry): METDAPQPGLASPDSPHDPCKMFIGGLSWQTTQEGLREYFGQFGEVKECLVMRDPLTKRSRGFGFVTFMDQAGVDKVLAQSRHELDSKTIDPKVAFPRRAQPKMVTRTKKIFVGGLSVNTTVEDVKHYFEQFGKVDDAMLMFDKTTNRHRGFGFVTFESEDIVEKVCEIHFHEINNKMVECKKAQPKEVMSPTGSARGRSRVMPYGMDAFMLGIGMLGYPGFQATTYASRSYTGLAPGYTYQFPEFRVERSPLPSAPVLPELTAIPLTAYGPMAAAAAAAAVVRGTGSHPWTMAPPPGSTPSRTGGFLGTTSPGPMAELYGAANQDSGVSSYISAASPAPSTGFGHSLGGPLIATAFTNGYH

Binder	binding signal
B1	0.617 enrichment R
B2	0.884 enrichment R
B3	1.55 enrichment R
B4	0.87 enrichment R
B5	1.57 enrichment R
B6	0.534 enrichment R
B7	0.321 enrichment R
B8	1.47 enrichment R
B9	0.687 enrichment R
B10	0.861 enrichment R
B11	0.512 enrichment R
B12	0.476 enrichment R
B13	0.235 enrichment R
B14	0.378 enrichment R
